Experimental data: the supplement of paper PMC9446081
The campaign covered roughly 39,000 compounds. About 220 (0.56%) showed activity. Some of the results follow.

system: Escherichia coli K-12 BW25113; assay: relative growth (OD600 normalised to plate interquartile mean) (fraction); higher = less growth inhibition, active = 0.2 or less; settings: 50 µM; LB; incubation time: overnight (16-24 h)
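Also: static incubation at 37 °C against the wild-type strain, values averaged over two biological replicates.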

Row | SMILES | relative growth
1 | CN(C)C(=O)[C@@]1(Cc2ccccc2N=[N+]=[N-])N=C(c2ccc(OCCCO)cc2)O[C@H]1c1ccccc1N=[N+]=[N-] | inactive: 1.03
2 | C[C@H]1CN([C@@H](C)CO)C(=O)CCCn2cc(nn2)CO[C@@H]1CN(C)C(=O)Oc1ccc2ccccc2c1 | inactive: 1.01
3 | NC(Cc1ccccc1)Cc1ccccc1 | inactive: 0.999
4 | CC(C)C[C@@H]1C(=O)N2CCC[C@@H]2[C@]2(O)O[C@@](NC(=O)[C@@H]3C=C4c5cccc6[nH]cc(c56)C[C@@H]4N(C)C3)(C(C)C)C(=O)N12 | inactive: 1.04
5 | C1CO[C@H]2[C@@H](C1)CNC[C@H]2N1CCOCC1 | inactive: 0.967
6 | CN1[C@H](CO)[C@H]2c3ccccc3NC[C@H]21 | inactive: 0.978
7 | N=C(N)NOCCC(N)C(=O)O (stereo unspecified) | inactive: 0.832
8 | C1CCC(NC2CCCCC2)CC1 | inactive: 0.978
9 | C[C@]12CC/C(=N\OCCN)C[C@@H]1C(=O)C[C@@H]1[C@@H]2CC[C@]2(C)C(=O)CC[C@@H]12 | inactive: 0.987
10 | CN[C@@H]1[C@@H]2[C@H]3CCN2C[C@H]1O3 | inactive: 0.989
11 | NC(=O)c1cc([N+](=O)[O-])cc([N+](=O)[O-])c1 | inactive: 0.926
12 | Cc1cccc([C@H](CN)N(C)C)c1 | inactive: 1.01
13 | O[C@H]1[C@H](O)[C@@H](O)CO[C@H]1NCCc1ccccc1 | inactive: 1.01
14 | [N-]=[N+]=NCc1ccccc1C[C@]1(C(=O)NCCN2CCOCC2)N=C(c2ccc(OCCCO)cc2)O[C@H]1c1ccccc1N=[N+]=[N-] | inactive: 1.01
15 | C[C@@H]1CN([C@@H](C)CO)C(=O)CCCn2cc(nn2)CO[C@H]1CN(C)C(=O)Oc1ccc2ccccc2c1 | inactive: 0.989
16 | O=[N+]([O-])OC1COC2C(O[N+](=O)[O-])COC12 (stereo unspecified) | inactive: 1.01
17 | COc1cc2c3cc1Oc1c(OC)c(OC)cc4c1C(Cc1cccc(c1)Oc1ccc(c(O)c1)CC3N(C)CC2)N(C)CC4.Cl.Cl (stereo unspecified) | inactive: 1.03
18 | CNCC(=O)c1ccc(O)c(O)c1 | inactive: 1.11
19 | Nc1ccccc1-c1ccccc1 | inactive: 0.981
20 | COc1ccc(OC(=O)N(C)C[C@@H]2OCc3ccccc3-c3c(n(C)c4ccccc34)C(=O)N([C@@H](C)CO)C[C@@H]2C)cc1 | inactive: 1.04
21 | Oc1cc2c(cc1O)CNCC2 | inactive: 0.999
22 | CN[C@@H](C)Cc1cnccn1 | inactive: 1.04

Row | SMILES | relative growth
23 | CC[C@@H](C)C(=O)O[C@H]1[C@H](O)[C@H]2[C@@H](CN3C[C@@H](C)CC[C@@H]3[C@@]2(C)O)[C@H]2C[C@]34O[C@]5(O)[C@@H](OC(=O)[C@@](C)(O)CC)CC[C@@]3(C)[C@@H]5[C@@H](OC(C)=O)[C@@H](OC(C)=O)[C@@H]4[C@@]21O | inactive: 1.02
24 | CC(C)[N+](C)(CCC(C(N)=O)(c1ccccc1)c1ccccc1)C(C)C.[I-] | inactive: 1.05
25 | NC1=NC(=O)N2C[C@@H]12 | inactive: 0.969
26 | CC1=C2CCC3C4CCC(=O)C4(C)CCC3C2(C)CCC1=O (stereo unspecified) | inactive: 1.12
27 | CN1C(=O)[C@@]23C[C@]4([C@@]56C[C@]78SS[C@](CO)(C(=O)N7[C@@H]5Nc5ccccc56)N(C)C8=O)c5ccccc5N[C@H]4N2C(=O)[C@@]1(CO)SS3 | inactive: 0.917
28 | FCCN1C[C@H]2CCN[C@H]2C1 | inactive: 1.01
29 | Cn1c(CCN)nc2ccccc21 | inactive: 0.944
30 | CC12C(=O)OC(=O)C1(C)C1CCC2O1 (stereo unspecified) | inactive: 0.928
31 | NC(=O)N1C[C@@H]2C[C@H]1CN2 | inactive: 1.07
32 | CNC[C@@H](O)c1ccc(O)c(OC)c1 | inactive: 0.97
33 | CC(N)(Cc1ccccc1)c1ccccc1 (stereo unspecified) | inactive: 0.997
34 | C[C@@H](N)C(=O)N[C@@H](CO)C(=O)N[C@H](C(=O)N[C@H](C(=O)N[C@H](C(=O)N[C@@H](CC(N)=O)C(=O)N[C@@H](Cc1ccc(O)cc1)C(=O)N[C@H](C(N)=O)[C@@H](C)O)[C@@H](C)O)[C@@H](C)O)[C@@H](C)O | inactive: 1.01
35 | CC(C)NC(=O)[C@H]1CCS(=O)(=O)[C@H]2CNC[C@@H]12 | inactive: 0.994
36 | NSC(=S)N1CCCC1 | inactive: 0.694
37 | NCc1cccnc1 | inactive: 0.976
38 | NCCc1[nH]nc2c1CCCC2 | inactive: 1.01
39 | NCCc1ccncc1 | inactive: 1.02
40 | C=C[C@H]1CN2CC[C@@H]1C[C@@H]2CO | inactive: 0.954
41 | NC(=O)c1ccc(N)nc1 | inactive: 0.986
42 | C[C@@H](N)Cc1c[nH]c2ccc(OCc3cccs3)cc12 | inactive: 0.98
43 | NC[C@@H]1CCCN2CCCC[C@H]12 | inactive: 0.968
44 | C=CCSSCC=C | inactive: 1.01

Row | SMILES | relative growth
45 | C[C@@H]1CN([C@H](C)CO)C(=O)CCCn2cc(nn2)CO[C@@H]1CN(C)C(=O)Oc1cccc2ccccc12 | inactive: 0.993
46 | C[C@H](CO)N1C[C@H](C)[C@@H](CN(C)C(=O)Oc2ccccc2)OCc2ccccc2-c2c(n(C)c3ccccc23)C1=O | inactive: 0.984
47 | CCOC(=O)CC(SP(=S)(OC)OC)C(=O)OCC (stereo unspecified) | inactive: 1.05
48 | CC(C)N1CCO[C@H]2CN(C(=O)N(C)C)C[C@@H]21 | inactive: 0.967
49 | COc1cc2c(c(OC)c1OC)-c1ccc(OC)c(=O)cc1C(NC(C)=O)CC2 (stereo unspecified) | inactive: 1.01
50 | CCCCOC(=O)c1ccccc1C(=O)OCCCC | inactive: 1.11
51 | Cc1cc(OC(=O)N(C)C)cc(=O)n1C | inactive: 1.02
52 | Cc1nc[nH]c1CCN | inactive: 1.01
53 | C[C@H]1CN([C@@H](C)CO)C(=O)CCCn2nncc2CO[C@H]1CN(C)C(=O)Oc1ccc2ccccc2c1 | inactive: 1.02
54 | O=C(NC(=O)c1c(F)cccc1F)Nc1ccc(Cl)cc1 | inactive: 1.17
55 | CN1CCc2cc([C@H](CN)N(C)C)ccc21 | inactive: 0.996
56 | CC[N+]1(C)CCCC(OC(=O)C(O)(c2ccccc2)c2ccccc2)C1.[Br-] (stereo unspecified) | inactive: 1.04
57 | Cc1ncc(CNC(=O)N(CCCl)N=O)c(N)n1.Cl | inactive: 1.09
58 | [N-]=[N+]=NCc1ccccc1C[C@]1(C(=O)N2CCCCC2)N=C(c2ccc(OCCCO)cc2)O[C@H]1c1ccccc1N=[N+]=[N-] | inactive: 1.01
59 | CN(C)C(=O)N[C@H]1CN[C@H]2CCCO[C@H]21 | inactive: 0.972
60 | CCC1(C2=NCCN2)Cc2ccccc2O1.Cl (stereo unspecified) | inactive: 0.883
61 | CC(=O)O.Cc1cc2c(C(C)C)c(O)c(O)c(C=O)c2c(O)c1-c1c(C)cc2c(C(C)C)c(O)c(O)c(C=O)c2c1O | inactive: 1.02
62 | Cc1cc(C(C#N)c2ccc(Cl)cc2)c(Cl)cc1NC(=O)c1cc(I)cc(I)c1O (stereo unspecified) | inactive: 0.644
63 | CCN(CC)C1CCCCC1 | inactive: 1.01
64 | CC(C)(C)NCC(O)c1cc(Cl)c(N)c(Cl)c1.Cl (stereo unspecified) | inactive: 1.08
65 | C[C@@]1(O)[C@H](O)[C@@H](CO)O[C@H]1n1ccc2c(N)ncnc21 | inactive: 0.994
66 | O=C1C=C2C=CC3CC2(O1)C1CCCCN31 (stereo unspecified) | inactive: 1.03

Row | SMILES | relative growth
67 | CNCCc1cnc[nH]1 | inactive: 1
68 | Br.CN1C2CC(OC(=O)C(CO)c3ccccc3)CC1C1OC12 (stereo unspecified) | inactive: 0.941
69 | CC[C@@H](N)[C@@H](O)c1ccc(O)c(O)c1 | inactive: 0.971
70 | Cn1cc(N2C[C@@H]3CNC[C@@H]3C2=O)cn1 | inactive: 1.01
71 | COc1cc2c(c(OC)c1OC)-c1ccc(O)c(=O)cc1C(NC(C)=O)CC2 (stereo unspecified) | inactive: 1.03
72 | CCn1cnc2c(Nc3cccc(Cl)c3)nc(N[C@@H]3CCCC[C@@H]3N)nc21 | inactive: 0.943
73 | COC(=O)CC1=C(C(=O)OC)[C@]2(C(=O)Nc3ccccc32)C(C(=O)OC)C(=N)O1 (stereo partly specified) | inactive: 1
74 | COc1ccc(CCN)cc1OC | inactive: 0.997
75 | O=C(CBr)N1CC([N+](=O)[O-])([N+](=O)[O-])C1 | inactive: 0.922
76 | Nc1ccc2c(c1)CNCC2 | inactive: 1.02
77 | OC[C@@H]1[C@@H](O)[C@H](O)[C@H]2[C@@H](O)CCN21 | inactive: 0.997
78 | CC(C)C[C@H](NC(=O)[C@H](CO)NC(=O)CNC(=O)[C@H](CC(C)C)NC(=O)[C@H](CCC(=O)O)NC(=O)[C@H](Cc1ccc(O)cc1)NC(=O)[C@H](CO)NC(=O)[C@H](CC(N)=O)NC(=O)[C@H](Cc1ccccc1)NC(=O)[C@H](CO)NC(=O)[C@@H](N)CSSC[C@H](N)C(=O)N[C@@H](Cc1ccc(O)cc1)C(=O)NCC(=O)N[C@@H](CCCNC(=N)N)C(=O)N[C@@H](CCCCN)C(=O)N[C@@H](CCCCN)C(=O)N[C@@H](CCCNC(=N)N)C(=O)N[C@@H](CCCNC(=N)N)C(=O)N[C@@H](CCC(N)=O)C(=O)N[C@@H](CCCNC(=N)N)C(=O)N[C@@H](CCCNC(=N)N)C(=O)N[C@@H](CCCNC(=N)N)C(=O)O)C(=O)O | inactive: 0.972
79 | O=C1NC(=S)NC(=O)C1=Cc1ccccc1 | inactive: 1
80 | COc1ccc(C(CN(C)C)C2(O)CCCCC2)cc1.Cl (stereo unspecified) | inactive: 1.14
81 | C[C@H](CO)N1C[C@H](C)[C@H](CN(C)C(=O)Oc2ccccc2)OCc2ccccc2-c2c(n(C)c3ccccc23)C1=O | inactive: 0.99
82 | CC(=O)Nc1ccc(CCN)cc1 | inactive: 1
83 | O=C(O)/C=C/CO | inactive: 1.01
84 | NC[C@H]1CCCc2ccc(Cl)cc21 | inactive: 0.899
85 | CC(C)c1cc2c(c(O)c1O)C1(C(=O)O)CCCC(C)(C)C1CC2 (stereo unspecified) | inactive: 0.861
86 | Cc1ccc(OC(=O)N(C)C[C@@H]2OCc3ccccc3-c3c(n(C)c4ccccc34)C(=O)N([C@H](C)CO)C[C@H]2C)cc1 | inactive: 1.01
